Patent US20120191435A1 (SHANGHAI NATIONAL ENGINEERING RESEARCH CENTER OF ANTIBODY …, published 2012)

T1: CD86-Fc protein (R&D) (UniProt P42081 24-245, limits assumed)
T1 construct: Bought reagent; also called B7 molecule; not shown: Fc part of the bought fusion protein, not described
T1 sequence (looked up): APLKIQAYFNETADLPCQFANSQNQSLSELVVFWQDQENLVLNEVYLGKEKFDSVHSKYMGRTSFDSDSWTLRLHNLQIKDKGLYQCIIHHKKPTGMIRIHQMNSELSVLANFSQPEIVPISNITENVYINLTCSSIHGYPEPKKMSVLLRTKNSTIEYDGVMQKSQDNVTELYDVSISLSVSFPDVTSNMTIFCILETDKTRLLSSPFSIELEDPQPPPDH

B1: CTLA-4/Ig mutant CTmut1 (D31Ala to Tyr) (Fc fusion)
chain: not shown
notes: extracellular domain; no entry can be tied to a mutant, so it is built from the un-mutated fusion and the change
B2: CTLA-4/Ig mutant CTmut7 (D35Arg to Pro) (Fc fusion)
chain: not shown
notes: extracellular domain
B3: CTLA-4/Ig mutant CTmut3 (D53Thr to Lys) (Fc fusion)
chain: not shown
notes: extracellular domain
B4: CTLA-4/Ig mutant CTmut4 (D55Met to Glu) (Fc fusion)
chain: not shown
notes: extracellular domain
B5: CTLA-4/Ig mutant CTmut5 (D63Leu to Lys) (Fc fusion)
chain: not shown
notes: extracellular domain
B6: CTLA-4/Ig mutant CTmut2 (D31Ala to Lys) (Fc fusion)
chain: not shown
notes: extracellular domain
B7: CTLA-4/Ig mutant CTmut6 (D63Leu to Tyr) (Fc fusion)
chain: not shown
notes: extracellular domain
B8: CTLA-4/Ig mutant CTmut8 (D106Leu to Glu) (Fc fusion)
chain: not shown
notes: extracellular domain
B9: CTLA-4/Ig mutant CTmut9 (D106Leu to Asn) (Fc fusion)
chain: not shown
notes: extracellular domain
B10: CTLA-4/Ig mutant CTmut10 (D106Leu to Ser) (Fc fusion)
chain: not shown
notes: extracellular domain

molecular target: T1, CD86-Fc protein (R&D); assay: Biacore SPR, CD86-Fc coupled on CM5 chip; ratio against commercially available abatacept

| Kd^abat/Kd^mutant | Binder |
| --- | --- |
| 4.24 | B1 |
| 0.58 | B2 |
| 0.58 | B3 |
| 1.87 | B4 |
| 1.97 | B5 |
| 4.31 | B6 |
| 2.44 | B7 |
| 2.13 | B8 |
| 0.94 | B9 |
| 2.86 | B10 |

molecular target: T1, CD86-Fc protein (R&D); assay: Biacore SPR, CD86-Fc coupled on CM5 chip; ratio against un-mutated CTLA-4/Ig (WT)

| Kd^WT/Kd^mutant | Binder |
| --- | --- |
| 3.98 | B1 |
| 0.55 | B3 |
| 1.75 | B4 |
| 1.85 | B5 |
| 4.04 | B6 |
| 2.29 | B7 |
| 2 | B8 |
| 0.88 | B9 |
| 2.68 | B10 |
